The results in this text go back to patent publication US20190275133A1 (NEKTAR THERAPEUTICS, published 2019).

The experiment deals with T1, human IL-2Rα-Fc fusion protein (human, UniProt P01589 22-240, limits assumed).
T1 construct: also called CD25; not shown: Fc portion
T1 sequence (looked up): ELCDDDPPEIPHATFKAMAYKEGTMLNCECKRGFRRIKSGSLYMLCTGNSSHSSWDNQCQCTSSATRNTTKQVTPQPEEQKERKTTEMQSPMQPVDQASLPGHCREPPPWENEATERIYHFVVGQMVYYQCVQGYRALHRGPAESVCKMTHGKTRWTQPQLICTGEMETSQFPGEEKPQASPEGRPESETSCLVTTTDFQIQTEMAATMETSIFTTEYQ
As to the kind of experiment: SPR (Biacore T-100), receptor-Fc captured on antihuman antibody, compared with aldesleukin. (Surface plasmon resonance follows binding to a sensor surface in real time, without labels.)

B1: RSLAIL-2 (multiPEGylated recombinant human IL-2 with the aldesleukin sequence; composition of primarily 4-mers, 5-mers and 6-mers of releasably attached … (ligand)
chain: not shown
modifications: primarily 4, 5 or 6 branched 20 kD polyethylene glycol moieties (C2-PEG2-FMOC-20K) releasably covalently attached via carbamate; attachment residues not stated
notes: A mixture of PEGylated species, not one compound; also called long acting IL-2Rαβ-biased agonist; long acting IL-2Rβ-biased agonist
Take B1: the binding result is on record as “binds”.
